The results in this text go back to US20230372458A1, “ANTIVIRAL AGENT FOR COMBINED THERAPY OF COVID-19 (SARS-COV-2)” (priority 2020, published 2023).

Values joined by “and” are separate entries in the source; they are usually repeats but may differ in a detail not shown here. Identical values can stand only once.

The subject of this assay is COVID-19 (SARS-CoV-2). Briefly: Clinical study of intravenous APR + oral FPV, oral FPV alone and intravenous APR alone in patients hospitalized with COVID-19, clinical status 4. The settings on record: for Median clinical improvement, 2 points: ordinal scale of clinical improvement.

For `NC(=O)c1nc(F)cnc1O` [FPV, 6-fluoro-3-hydroxy-2-pyrazinecarboxamide], the “Median SARS-CoV-2 elimination” value was 4.5 days; the “Median body temperature normalization (<37° C.)” value is on record as 3 days; the “Median clinical improvement, 2 points” value was found to be 8 days. Besides, where the note is “listed as FVP”, the “Median clinical improvement, 2 points” value was 8 days and 8.0 days.
